Over roughly 81,000 sequences, “one-hybrid fitness for binding NBS DNA” has its median near -0.1; the highest 2% begin near 0.36. The list shows a part of the results.
B1: Caulobacter ParB omega fusion; a variant is named by its letters at X, in order, B8GW30 (parent)
chain: MESVVVGEPGMSEGRRGLGRGLSALLGEVDAAPAQAPGEQLGGSREAPIEILQRNPDQPRRTFREEDLEDLSNSIREKGVLQPILVRPSPDTAGEYQIVAGERAWRAAQRAGLKTVPIMVRELDDLAVLEIGIIENVQRADLNVLEEALSYKVLMEKFERTQENIAQTIGKSXSHVANXMRLLXLPDEVQSYLVSGELTAXHARAIAAAADPVALAKQIIEGGLSVRETEALARKAPNLSAGKSKGGRPPRVKDTDTQALESDLSSVLGLDVSIDHRGSTGTLTITYATLEQLDDLCNRLTRGI

Variants of: B1
Test: one-hybrid fitness for binding NBS DNA (the Noc-binding site; scaled: cognate 1, non-cognate 0); higher = stronger binding
Settings: with NBS DNA site
Outline: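 Caulobacter ParB libraries with four specificity codons randomised were screened by bacterial one-hybrid selection in the E. coli USO strain, using a HIS3 reporter whose site lies 19 bp from the promoter. Selection ran for 48 hours at 37°C on M9 lacking histidine, with 0.1 mM IPTG and 5 mM 3-AT. Plasmids were Illumina-sequenced before and after selection, three replicate libraries were pooled, and variants with under 10 reads were dropped. Fitness is the log change in each variant's read ratio to wild type, rescaled against the cognate and non-cognate sites.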

| Variant | one-hybrid fitness for binding NBS DNA |
| --- | --- |
| ELEI | ≤ 0.2 |
| IRQA | ≤ 0.2 |
| QNGA | ≤ 0.2 |
| PAKK | ≤ 0.2 |
| EKLG | ≤ 0.2 |
| QCGM | ≤ 0.2 |
| AGTY | ≤ 0.2 |
| HGVT | ≤ 0.2 |
| ICSC | ≤ 0.2 |
| WTEC | ≤ 0.2 |
| TEDK | ≤ 0.2 |
| NRLS | ≤ 0.2 |
| VLVW | ≤ 0.2 |
| PNFY | ≤ 0.2 |
| AQQS | ≤ 0.2 |
| VRPA | ≤ 0.2 |
| SISM | ≤ 0.2 |
| NHGG | ≤ 0.2 |
| PNTD | ≤ 0.2 |
| YPHM | ≤ 0.2 |
| YHYR | ≤ 0.2 |
| LRVN | ≤ 0.2 |
| VTIG | ≤ 0.2 |
| QIPW | ≤ 0.2 |
| LNGS | ≤ 0.2 |

| Variant | one-hybrid fitness for binding NBS DNA |
| --- | --- |
| WLHV | ≤ 0.2 |
| NWHF | ≤ 0.2 |
| WVAR | ≤ 0.2 |
| QCHL | ≤ 0.2 |
| DPNK | ≤ 0.2 |
| QAVD | ≤ 0.2 |
| KRAE | ≤ 0.2 |
| NLDW | ≤ 0.2 |
| LWNL | ≤ 0.2 |
| LEHG | ≤ 0.2 |
| IICS | ≤ 0.2 |
| QSNT | 0.476 |
| CPYD | ≤ 0.2 |
| RTYM | ≤ 0.2 |
| QPMF | ≤ 0.2 |
| RYIC | ≤ 0.2 |
| PWVK | ≤ 0.2 |
| PQYL | ≤ 0.2 |
| QPFG | ≤ 0.2 |
| RNPA | ≤ 0.2 |
| ERKK | ≤ 0.2 |
| LPQN | ≤ 0.2 |
| DCYT | ≤ 0.2 |
| QCYC | 0.204 |
| CMHS | ≤ 0.2 |

| Variant | one-hybrid fitness for binding NBS DNA |
| --- | --- |
| QPWG | ≤ 0.2 |
| VPML | ≤ 0.2 |
| ENAW | ≤ 0.2 |
| DDQP | ≤ 0.2 |
| SNLG | ≤ 0.2 |
| IEPC | ≤ 0.2 |
| FIPG | ≤ 0.2 |
| CGSY | ≤ 0.2 |
| GSRI | ≤ 0.2 |
| PPAG | ≤ 0.2 |
| TPMA | ≤ 0.2 |
| ITAF | ≤ 0.2 |
| SLNE | ≤ 0.2 |
| PCIT | ≤ 0.2 |
| HIWV | ≤ 0.2 |
| IECR | ≤ 0.2 |
| FSRF | ≤ 0.2 |
| QEHC | ≤ 0.2 |
| DKHS | ≤ 0.2 |
| AIYN | ≤ 0.2 |
| HPLC | ≤ 0.2 |
| LHPF | ≤ 0.2 |
| NHKI | ≤ 0.2 |
| VNYE | ≤ 0.2 |
| YVRM | ≤ 0.2 |

| Variant | one-hybrid fitness for binding NBS DNA |
| --- | --- |
| FMGS | ≤ 0.2 |
| NMRF | ≤ 0.2 |
| APGF | ≤ 0.2 |
| HSIC | ≤ 0.2 |
| NKWT | ≤ 0.2 |
| KHES | ≤ 0.2 |
| TFGE | ≤ 0.2 |
| YINS | ≤ 0.2 |
| MDRM | ≤ 0.2 |
| TTSS | ≤ 0.2 |
| AVMM | ≤ 0.2 |
| QATI | ≤ 0.2 |
| RRFR | 0.728 |
| GKLC | ≤ 0.2 |
| CYNL | ≤ 0.2 |
| IKSK | ≤ 0.2 |
| VCES | ≤ 0.2 |
| WRNM | ≤ 0.2 |
| TTDV | ≤ 0.2 |
| HPAN | ≤ 0.2 |
| HLQR | ≤ 0.2 |
| RKKA | 0.514 |
| AMDS | ≤ 0.2 |
| STHM | ≤ 0.2 |
| GVPC | ≤ 0.2 |

| Variant | one-hybrid fitness for binding NBS DNA |
| --- | --- |
| VIVV | ≤ 0.2 |
| MQAA | ≤ 0.2 |
| KYKW | ≤ 0.2 |
| QISP | ≤ 0.2 |
| MMRN | ≤ 0.2 |
| QFSG | ≤ 0.2 |
| WRFT | ≤ 0.2 |
| CMMS | ≤ 0.2 |
| EPKT | ≤ 0.2 |
| QIGV | ≤ 0.2 |
| TKQG | ≤ 0.2 |
| QTLY | ≤ 0.2 |
| EARE | ≤ 0.2 |
| NEEV | ≤ 0.2 |
| YFTS | ≤ 0.2 |
| LNLG | ≤ 0.2 |
| IVHC | ≤ 0.2 |
| RNHS | 0.238 |
| NDCV | ≤ 0.2 |
| TDRS | ≤ 0.2 |
| LWHR | ≤ 0.2 |
| YFFT | ≤ 0.2 |
| NQAM | ≤ 0.2 |
| PNNR | ≤ 0.2 |
| RRFE | ≤ 0.2 |

| Variant | one-hybrid fitness for binding NBS DNA |
| --- | --- |
| MSCV | ≤ 0.2 |
| RFEQ | ≤ 0.2 |
| ADGS | ≤ 0.2 |
| WASV | ≤ 0.2 |
| CVKT | ≤ 0.2 |
| NDMW | ≤ 0.2 |
| QPMG | ≤ 0.2 |
| HIKC | ≤ 0.2 |
| VNTA | ≤ 0.2 |
| EFCR | ≤ 0.2 |
| RKKH | 0.465 |
| YRSF | ≤ 0.2 |
| AIPR | ≤ 0.2 |
| WSAG | ≤ 0.2 |
| GRHC | ≤ 0.2 |
| CWDS | ≤ 0.2 |
| VQSA | ≤ 0.2 |
| QTEH | ≤ 0.2 |
| ALHY | ≤ 0.2 |
| ISTH | ≤ 0.2 |
| FLAS | ≤ 0.2 |
| STRL | ≤ 0.2 |
| VIRS | ≤ 0.2 |
| KHAA | ≤ 0.2 |
| QDSR | 0.207 |

| Variant | one-hybrid fitness for binding NBS DNA |
| --- | --- |
| QLCK | ≤ 0.2 |
| AAVN | ≤ 0.2 |
| NRYK | ≤ 0.2 |
| VSSS | ≤ 0.2 |
| ILQF | ≤ 0.2 |
| TGET | ≤ 0.2 |
| RQST | 0.474 |
| EYIG | ≤ 0.2 |
| GMES | ≤ 0.2 |
| AVAR | ≤ 0.2 |
| SYGK | ≤ 0.2 |
| KDMM | ≤ 0.2 |
| LMTM | ≤ 0.2 |
| GTDD | ≤ 0.2 |
| YADR | ≤ 0.2 |
| GVGV | ≤ 0.2 |
| HYES | ≤ 0.2 |
| ENQT | ≤ 0.2 |
| CTTY | ≤ 0.2 |
| GQWY | ≤ 0.2 |
| EMMI | ≤ 0.2 |
| WSVG | ≤ 0.2 |
| QRRC | 0.489 |
| LMDR | ≤ 0.2 |
| YKFS | ≤ 0.2 |

| Variant | one-hybrid fitness for binding NBS DNA |
| --- | --- |
| PHRL | ≤ 0.2 |
| TISM | ≤ 0.2 |
| RFIC | ≤ 0.2 |
| YTDE | ≤ 0.2 |
| PDVA | ≤ 0.2 |
| VRIS | ≤ 0.2 |
| RHDS | ≤ 0.2 |
| KTGS | ≤ 0.2 |
| RWWF | ≤ 0.2 |
| SDSK | ≤ 0.2 |
| VYPM | ≤ 0.2 |
| TWER | ≤ 0.2 |
| GEDT | ≤ 0.2 |
| HGPE | ≤ 0.2 |
| NYYT | ≤ 0.2 |
| NSAK | ≤ 0.2 |
| TAWA | ≤ 0.2 |
| WSYR | ≤ 0.2 |
| SAME | ≤ 0.2 |
| HDSE | ≤ 0.2 |

Source: a collection of fitness landscapes (doi:10.1016/j.celrep.2020.107928)
